{"source": "the supplement of paper PMC12217912", "parents": {"B1": {"name": "TEV protease; numbered along this chain (parent)", "chain": "MGESLFKGPRDYNPISSSICHLTNESDGHTTSLYGIGFGPFIITNKHLFRRNNGTLVVQSLHGVFKVKDTTTLQQHLVDGRDMIIIRMPKDFPPFPQKLKFREPQREERICLVTTNFQTKSMSSMVSDTSCTFPSGDGIFWKHWIQTKDGQCGSPLVSTRDGFIVGIHSASNFTNTNNYFTSVPKNFMELLTNQEAQQWVSGWRLNADSVLWGGHKVFMVKPEEPFQPVKEATQL"}}, "variants_of": "B1", "assay": "raw area under fraction-flipped curve 0-4 h after induction (AUC4h, not background-subtracted), DNA-recorder readout of cleavage of the substrate (dimensionless); higher = more cleavage of the substrate by the protease variant", "conditions": "temperature: 34 °C; time window: 0-4 h after rhamnose induction", "protocol": "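In vivo DNA recorder in E. coli TOP10(DE3) ΔrhaA at 34 °C. Each TEVp single-site mutant (parent TEVp 0) is paired with a single-site variant of the 7-mer TEVs (canonical ENLYFQ|S). The substrate sits between flexible linkers in a Bxb1-sfGFP-TEVs-SsrA fusion, so cleavage stabilises Bxb1 and speeds flipping of a recombination array, read by NGS. The value is the raw area under the fraction-flipped curve over 0-4 h after rhamnose induction (AUC4h), with ≥20 reads per time point. It is not background-subtracted; inactive controls average about 0.047.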", "note": "This is one part of the list. Sequences were assembled here from the parent chain. Values near 0.05 are background.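 Also: Bxb1 expression induced with 0.2% (w/v) L-rhamnose at OD600 near 0.5, cultures sampled hourly, flipped fraction per protease–substrate barcode pair counted by paired-end Illumina sequencing.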"}
{"variant": "N193W", "values": [{"measurement": "area with substrate ENLYFCS", "result": 0.0066}, {"measurement": "area with substrate ENLYFIS", "result": 0.0572}, {"measurement": "area with substrate ENLYFMS", "result": 0.0501}, {"measurement": "area with substrate ENLYFNS", "result": 0.0536}, {"measurement": "area with substrate ENLYFPS", "result": 0.0493}, {"measurement": "area with substrate ENLYFYS", "result": 0.0666}]}
{"variant": "Q59T", "values": [{"measurement": "area with substrate ENLYFAS", "result": 0.0384}, {"measurement": "area with substrate ENLYFCS", "result": 0.0607}, {"measurement": "area with substrate ENLYFES", "result": 0.0684}, {"measurement": "area with substrate ENLYFFS", "result": 0.0776}, {"measurement": "area with substrate ENLYFGS", "result": 0.0588}, {"measurement": "area with substrate ENLYFHS", "result": 0.0775}, {"measurement": "area with substrate ENLYFIS", "result": 0.059}, {"measurement": "area with substrate ENLYFNS", "result": 0.0604}, {"measurement": "area with substrate ENLYFPS", "result": 0.0621}, {"measurement": "area with substrate ENLYFRS", "result": 0.0503}, {"measurement": "area with substrate ENLYFYS", "result": 0.0588}]}
{"variant": "P94M", "values": [{"measurement": "area with substrate ENLYFCS", "result": 0.0793}, {"measurement": "area with substrate ENLYFFS", "result": 0.0674}, {"measurement": "area with substrate ENLYFIS", "result": 0.0541}, {"measurement": "area with substrate ENLYFKS", "result": 0.0584}, {"measurement": "area with substrate ENLYFMS", "result": 0.0479}, {"measurement": "area with substrate ENLYFNS", "result": 0.0652}, {"measurement": "area with substrate ENLYFPS", "result": 0.0621}, {"measurement": "area with substrate ENLYFRS", "result": 0.052}, {"measurement": "area with substrate ENLYFTS", "result": 0.0661}, {"measurement": "area with substrate ENLYFWS", "result": 0.0597}]}
{"variant": "Q194M", "values": [{"measurement": "area with substrate ENLYFAS", "result": 0.0556}, {"measurement": "area with substrate ENLYFCS", "result": 0.0511}, {"measurement": "area with substrate ENLYFDS", "result": 0.0555}, {"measurement": "area with substrate ENLYFES", "result": 0.0684}, {"measurement": "area with substrate ENLYFFS", "result": 0.0686}, {"measurement": "area with substrate ENLYFHS", "result": 0.0539}, {"measurement": "area with substrate ENLYFMS", "result": 0.0575}, {"measurement": "area with substrate ENLYFNS", "result": 0.0629}, {"measurement": "area with substrate ENLYFPS", "result": 0.0554}, {"measurement": "area with substrate ENLYFRS", "result": 0.0614}, {"measurement": "area with substrate ENLYFSS", "result": 0.064}, {"measurement": "area with substrate ENLYFTS", "result": 0.0606}, {"measurement": "area with substrate ENLYFWS", "result": 0.0441}, {"measurement": "area with substrate ENLYFYS", "result": 0.0659}]}
{"variant": "Q194K", "values": [{"measurement": "area with substrate ENLYFCS", "result": 0.0606}, {"measurement": "area with substrate ENLYFDS", "result": 0.0592}, {"measurement": "area with substrate ENLYFES", "result": 0.0615}, {"measurement": "area with substrate ENLYFHS", "result": 0.061}, {"measurement": "area with substrate ENLYFIS", "result": 0.0651}, {"measurement": "area with substrate ENLYFKS", "result": 0.0582}, {"measurement": "area with substrate ENLYFNS", "result": 0.0602}, {"measurement": "area with substrate ENLYFPS", "result": 0.0557}, {"measurement": "area with substrate ENLYFTS", "result": 0.0457}, {"measurement": "area with substrate ENLYFVS", "result": 0.0235}, {"measurement": "area with substrate ENLYFWS", "result": 0.074}]}
{"variant": "V57C", "values": [{"measurement": "area with substrate ENLYFAS", "result": 0.067}, {"measurement": "area with substrate ENLYFES", "result": 0.0758}, {"measurement": "area with substrate ENLYFFS", "result": 0.0762}, {"measurement": "area with substrate ENLYFGS", "result": 0.051}, {"measurement": "area with substrate ENLYFHS", "result": 0.0549}, {"measurement": "area with substrate ENLYFMS", "result": 0.0613}, {"measurement": "area with substrate ENLYFNS", "result": 0.0646}, {"measurement": "area with substrate ENLYFPS", "result": 0.0599}, {"measurement": "area with substrate ENLYFRS", "result": 0.0533}, {"measurement": "area with substrate ENLYFSS", "result": 0.0511}, {"measurement": "area with substrate ENLYFTS", "result": 0.0537}, {"measurement": "area with substrate ENLYFWS", "result": 0.0482}]}
{"variant": "G8E", "values": [{"measurement": "area with substrate ENLYFAS", "result": 0.0545}, {"measurement": "area with substrate ENLYFFS", "result": 0.0672}, {"measurement": "area with substrate ENLYFRS", "result": 0.0516}, {"measurement": "area with substrate ENLYFSS", "result": 0.0713}]}
{"variant": "E108C", "values": [{"measurement": "area with substrate ENLYFAS", "result": 0.0558}, {"measurement": "area with substrate ENLYFDS", "result": 0.067}, {"measurement": "area with substrate ENLYFES", "result": 0.0574}, {"measurement": "area with substrate ENLYFFS", "result": 0.0641}, {"measurement": "area with substrate ENLYFHS", "result": 0.0496}, {"measurement": "area with substrate ENLYFIS", "result": 0.0556}, {"measurement": "area with substrate ENLYFKS", "result": 0.0615}, {"measurement": "area with substrate ENLYFLS", "result": 0.0656}, {"measurement": "area with substrate ENLYFMS", "result": 0.0535}, {"measurement": "area with substrate ENLYFNS", "result": 0.0586}, {"measurement": "area with substrate ENLYFSS", "result": 0.0404}, {"measurement": "area with substrate ENLYFTS", "result": 0.0407}, {"measurement": "area with substrate ENLYFVS", "result": 0.0712}, {"measurement": "area with substrate ENLYFWS", "result": 0.0592}, {"measurement": "area with substrate ENLYFYS", "result": 0.0815}]}
